The campaign covered roughly 43,000 compounds. About 200 (0.47%) were called active. About 12% were inconclusive and are not listed. Calls follow the shape of the dose curve; as a rule, active = well fitted cell-killing curve with a large enough effect; inconclusive = small, poorly fitted or top-dose-only effect, or effect the other way; inactive = flat fitted curve, though single readings scatter. Some of the results follow.
Assay: Cell viability qHTS assay in S16 Pmp22-F2sN cells; also: nearly all actives have a fitted effect of over 65% in size
Conditions: S16 Pmp22-F2sN Schwann cells viability, CellTiter-Glo, 24 h; series mostly up to 57.5 µM; activity change, negative = cytotoxicity: at the top concentration
In short: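 S16 Pmp22-F2sN Schwann cells (500-1,000/well) in phenol-red-free DMEM with 10% FBS received 23 nL compound by pin tool for 24 h at 37 °C. Viability was then read as CellTiter-Glo luminescence after 15 min at room temperature.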
% is scaled to controls: 0 for no effect and ±100 for the full control effect.

Q: For Cc1noc2ncnc(N3CCN(c4ccccc4F)CC3)c12, which “activity change, negative = cytotoxicity” value is on record?
A: inactive: -10.9%

Q: Which “activity change, negative = cytotoxicity” value does the source give for CCOC(=O)CSc1nnc2n(-c3ccccc3)c(=O)c3c4c(sc3n12)COC(C(C)C)C4 (stereo unspecified) here?
A: inactive: 12.1%

Q: For Cc1ccc(-n2nc(C)c3c(C(=O)O)cc(C)nc32)cc1, which “activity change, negative = cytotoxicity” value is on record?
A: inactive: 6.93%

Q: Which “activity change, negative = cytotoxicity” value does the source give for Cc1cc2c(cc3c(=O)n(CC(=O)NCc4ccccc4Br)ncn32)s1 here?
A: inactive: 9.1%

Q: For CC(=O)N1CCc2c(sc3c2c(=O)n(-c2cccc(Cl)c2)c(=O)n3Cc2ccc(F)cc2Cl)C1, which “activity change, negative = cytotoxicity” value is on record?
A: inactive: -10.8%

Q: With Cc1nn(C)c2c1c(C(F)(F)F)cc(=O)n2CC(=O)N1CCN(c2ccccc2F)CC1 as the molecule, how does the “activity change, negative = cytotoxicity” value read?
A: inactive: -7.98%

Q: For Cc1cc(-c2ccc(C)c(S(=O)(=O)N3c4ccccc4CC3C)c2)on1 (stereo unspecified), which “activity change, negative = cytotoxicity” value is on record?
A: inactive: -10.5%

Q: For O=C(NCc1ccc2c(c1)CCN2C(=O)c1ccc(Cl)cc1)c1ccco1, which “activity change, negative = cytotoxicity” value is on record?
A: inactive: -24.4%

Q: For CCOC(=O)c1c(NC(=O)/C=C/c2ccc(OCC)cc2)sc2c1CCCC2, which “activity change, negative = cytotoxicity” value is on record?
A: inactive: 14%

Q: With O=C(Cn1c(=O)n(-c2ccccc2)c(=O)c2c3c(sc21)CCCC3)Nc1ccccc1 as the molecule, how does the “activity change, negative = cytotoxicity” value read?
A: inactive: 23%

Q: Which “activity change, negative = cytotoxicity” value does the source give for CCOc1ccc(-c2cc(C(=O)NCCc3ccccc3)c3c(-c4ccc(C)cc4)[nH]nc3n2)cc1 here?
A: inactive: 22.7%

Q: With Cc1cc(C)c2c(=O)c3c(oc2c1)C(=O)N(Cc1ccco1)C3c1ccc(F)cc1 (stereo unspecified) as the molecule, how does the “activity change, negative = cytotoxicity” value read?
A: inactive: 7.28%

Q: For Cc1ccc(CC(=O)Nc2c(C(=O)N3CCN(c4ccccc4)CC3)oc3ccccc23)cc1, which “activity change, negative = cytotoxicity” value is on record?
A: inactive: -16%

Q: For CCOC(=O)c1noc2nc(C)n(CC(=O)Nc3ccc(OC)c(Cl)c3)c(=O)c12, which “activity change, negative = cytotoxicity” value is on record?
A: inactive: -4.69%

Q: With O=C(O)CSc1nnc(-c2ccc(O)cc2)o1 as the molecule, how does the “activity change, negative = cytotoxicity” value read?
A: inactive: 1.99%

Q: Which “activity change, negative = cytotoxicity” value does the source give for Cc1cc(N2CCC(C(=O)Nc3ccc(Cl)cc3)CC2)n2nc(C)c(-c3ccc(Cl)cc3)c2n1 here?
A: inactive: 6.1%

Q: Which “activity change, negative = cytotoxicity” value does the source give for Cc1nc(-c2ccc(S(=O)(=O)N(Cc3ccccc3)C(C)C)cc2)co1 here?
A: inactive: 11.4%

Q: Which “activity change, negative = cytotoxicity” value does the source give for COc1ccc(CCn2c(=O)c3cccnc3n(CC(=O)Nc3ccc(C)cc3C)c2=O)cc1OC here?
A: inactive: 16.5%

Q: For Cn1cc(C(=O)Nc2ccc(C#N)cc2)c2ccccc2c1=O, which “activity change, negative = cytotoxicity” value is on record?
A: inactive: 18.1%

Q: Which “activity change, negative = cytotoxicity” value does the source give for O=C(Nc1cccc(C(=O)OCc2cc(=O)n3c4c(sc3n2)CCCC4)c1)c1cccc(Cl)c1 here?
A: inactive: 0.156%

Q: Which “activity change, negative = cytotoxicity” value does the source give for COc1cccc(NC(=O)Cn2nnc(C(=O)NCCc3ccccc3)c2N)c1 here?
A: inactive: -4.97%

Q: Which “activity change, negative = cytotoxicity” value does the source give for Cc1ccc(Cl)cc1NC(=O)C1CCN(C(=O)c2cnn(-c3ccccc3)c2-n2cccc2)CC1 here?
A: inactive: -20.1%

Q: Which “activity change, negative = cytotoxicity” value does the source give for O=C(CSc1nc2c([nH]c3ccccc32)c(=O)n1-c1ccc(F)cc1)NCc1ccc(F)cc1 here?
A: inactive: 1.75%

Q: For CCOc1ccc(CCNC(=O)c2ccc3c(c2)nc2n3CCOC2)cc1OCC, which “activity change, negative = cytotoxicity” value is on record?
A: inactive: 11.3%

Q: With CC(C)OCCCNC(=O)CCCn1c(SCC(N)=O)nc2c(sc3ccccc32)c1=O as the molecule, how does the “activity change, negative = cytotoxicity” value read?
A: inactive: 3.36%

Q: With Cc1cc(C)nc(NS(=O)(=O)c2ccc(NC(=O)c3nc(SC(C)C)ncc3Cl)cc2)n1 as the molecule, how does the “activity change, negative = cytotoxicity” value read?
A: inactive: -0.178%

Q: For Cc1c(Cl)cccc1-n1ncc(C(=O)N2CCC(C)CC2)c1C1CCN(C(=O)OC(C)(C)C)CC1, which “activity change, negative = cytotoxicity” value is on record?
A: inactive: -5.09%

Q: Which “activity change, negative = cytotoxicity” value does the source give for Cc1oc(-c2ccc(C(=O)NCc3ccccc3F)cc2)nc1COc1ccccc1 here?
A: inactive: 12.1%

Q: For CN(C(=O)C1CCN(c2ncnc3c2nc2n3CCCCC2)CC1)c1ccccc1F, which “activity change, negative = cytotoxicity” value is on record?
A: inactive: -1.02%

Q: For CC(C)C(NS(=O)(=O)c1ccc2c(c1)oc(=O)n2C)C(=O)NCc1ccccc1 (stereo unspecified), which “activity change, negative = cytotoxicity” value is on record?
A: inactive: 6.03%

Q: With CC(=O)c1ccc(N2CCN(C(=O)c3cc4c(s3)-c3ccccc3OC4)CC2)cc1 as the molecule, how does the “activity change, negative = cytotoxicity” value read?
A: inactive: -7.59%

Q: Which “activity change, negative = cytotoxicity” value does the source give for COc1ccccc1CNC(=O)C1CCN(S(=O)(=O)c2ccc3[nH]c(=O)ccc3c2)CC1 here?
A: inactive: 8.89%

Q: Which “activity change, negative = cytotoxicity” value does the source give for CCOC(=O)c1ccccc1NC(=O)NCc1cccn1Cc1ccc(F)cc1 here?
A: inactive: -19.7%

Q: For Cc1ccc(Cn2ccnc2SCC(=O)Nc2ccccc2C(F)(F)F)cc1, which “activity change, negative = cytotoxicity” value is on record?
A: inactive: 7.69%

Q: For COc1ccc(OC)c(NC(=O)CCn2cccn2)c1, which “activity change, negative = cytotoxicity” value is on record?
A: inactive: 6.02%

Q: Which “activity change, negative = cytotoxicity” value does the source give for CCCn1c2ccccc2c2cnn(CC(=O)NCc3ccc(OC)cc3)c(=O)c21 here?
A: inactive: 15.2%

Q: For CC(=O)c1ccc(N2CCN(c3nc4ccccc4c4nc(-c5cccc(C)c5)nn34)CC2)cc1, which “activity change, negative = cytotoxicity” value is on record?
A: inactive: -4.23%

Q: Which “activity change, negative = cytotoxicity” value does the source give for CCc1nn(CC(=O)N2CCN(c3cccc(Cl)c3)CC2)c(=O)c2cc3sccc3n12 here?
A: inactive: 2.42%

Q: Which “activity change, negative = cytotoxicity” value does the source give for O=C1CC(c2cccc(Cl)c2Cl)c2cc3c(cc2N1)OCCO3 (stereo unspecified) here?
A: inactive: -17.4%

Q: With COc1cc(OC)c(NC(=O)Cn2c(SCc3ccccc3F)nc3cccnc32)cc1Cl as the molecule, how does the “activity change, negative = cytotoxicity” value read?
A: inactive: 10.9%

Q: For CCOC(=O)c1ccc(NC(=O)COc2cccc3c(=O)n(C)ccc23)cc1, which “activity change, negative = cytotoxicity” value is on record?
A: inactive: -27.7%

Q: Which “activity change, negative = cytotoxicity” value does the source give for O=S(=O)(c1ccc(F)cc1)N(Cc1nc(-c2ccccc2)no1)C1CCCCC1 here?
A: inactive: -0.259%

Q: For COc1ccc(NC(=O)CN2CCN(CC(=O)Nc3ccccc3F)CC2)cc1OC, which “activity change, negative = cytotoxicity” value is on record?
A: inactive: 3.11%

Q: With Cc1oc(-c2ccccc2Cl)nc1CS(=O)CC(=O)NCc1ccccc1Cl (stereo unspecified) as the molecule, how does the “activity change, negative = cytotoxicity” value read?
A: inactive: 2.05%

Q: For Cc1ccc(-n2nc(C(=O)Nc3ccc(Br)cc3C)c(=O)n(C)c2=O)cc1, which “activity change, negative = cytotoxicity” value is on record?
A: inactive: 5.43%

Q: With COc1ccccc1CNC(=O)CSCc1nc(-c2ccc(OC)c(OC)c2)oc1C as the molecule, how does the “activity change, negative = cytotoxicity” value read?
A: inactive: -25.8%

Q: With COC(=O)c1ccc(NC(=O)C(=O)NCCc2csc(-c3ccc(C(F)(F)F)cc3)n2)cc1 as the molecule, how does the “activity change, negative = cytotoxicity” value read?
A: inactive: 2.87%

Q: Which “activity change, negative = cytotoxicity” value does the source give for Cc1cc(Cl)ccc1OCC(=O)N1CCC(c2nc3ccccc3o2)CC1 here?
A: inactive: -5.56%

Q: Which “activity change, negative = cytotoxicity” value does the source give for O=C(COc1ccc(F)cc1)Nc1ccc(C(=O)OCc2cc(=O)n3nc(C4CC4)sc3n2)cc1 here?
A: inactive: 8.76%

Q: With CCOc1ccc(NC(=O)N2CCC(c3ccc(C)cc3)C2)cc1 (stereo unspecified) as the molecule, how does the “activity change, negative = cytotoxicity” value read?
A: inactive: 0.219%

Q: Which “activity change, negative = cytotoxicity” value does the source give for Cc1ccccc1NS(=O)(=O)c1ccc2[nH]c3c(c2c1)CCCCC3 here?
A: inactive: -22.1%

Q: With CCOC(=O)c1cc(-c2ccccc2)n(CCC(=O)Nc2nc3c(C)cccc3s2)c1C as the molecule, how does the “activity change, negative = cytotoxicity” value read?
A: inactive: 0.885%

Q: With CC(C)CCOc1ccccc1Cn1c(=O)sc2ccccc21 as the molecule, how does the “activity change, negative = cytotoxicity” value read?
A: inactive: 1.17%

Q: Which “activity change, negative = cytotoxicity” value does the source give for CC(=O)N1c2c(cc(Br)cc2S(=O)(=O)N2CCN(c3ccccc3)CC2)CC1C (stereo unspecified) here?
A: inactive: -6.97%

Q: With Cc1ccc(-c2cc3c(N4CCN(c5cc(C)ccc5C)CC4)nccn3n2)cc1 as the molecule, how does the “activity change, negative = cytotoxicity” value read?
A: inactive: 2.23%

Q: For CCc1ccc(-n2c(=O)c3c(C)c(C(=O)N(C)C)sc3n(Cc3ccccc3F)c2=O)cc1, which “activity change, negative = cytotoxicity” value is on record?
A: inactive: 17.5%

Q: For Cn1c(=O)c2sccc2n2c(CCCC(=O)Nc3ccc(Oc4ccc(Cl)cc4)cc3)nnc12, which “activity change, negative = cytotoxicity” value is on record?
A: inactive: -14.6%

Q: Which “activity change, negative = cytotoxicity” value does the source give for Cc1ccc(-c2nnc(SCC(=O)NCc3ccccc3)nc2-c2ccc(C)cc2)cc1 here?
A: inactive: -1.59%

Q: With CNS(=O)(=O)c1cc(-c2nnc(Nc3cc(C)ccc3C)c3ccccc23)ccc1C as the molecule, how does the “activity change, negative = cytotoxicity” value read?
A: inactive: -24.8%

Q: Which “activity change, negative = cytotoxicity” value does the source give for CCOC(=O)c1cnc2ccccc2c1Nc1cccc(OC)c1 here?
A: inactive: -17.1%

Q: Which “activity change, negative = cytotoxicity” value does the source give for Cc1cc2c(cc3c(SCC(=O)Nc4cccc(Cl)c4C)nnc(C)n32)o1 here?
A: inactive: 4.42%
